PubChem BioAssay AID504332 (National Center for Advancing Translational Sciences (NCATS), 2011)
Screen size: about 350,000 compounds; about 31,000 (8.9%) were called active. Inconclusive results, whose numbers are uncertain, are shown with a selection of clear calls. The call rests on the fitted dose curve; in most records, active means well fitted inhibition curve with a large enough effect; inconclusive means small, poorly fitted or top-dose-only effect; inactive means no such curve, though single readings can be large or run the other way. A potency beside an inconclusive call is a rough fit, not a confirmed value.

What follows are compounds tested against Histone-lysine N-methyltransferase EHMT2 (Homo sapiens) (UniProt Q96KQ7) (assay: qHTS Assay for Inhibitors of Histone Lysine Methyltransferase G9a). Details: G9a H3K9 monomethylation, AlphaScreen, 2 h; activity, negative = inhibition: at 59 µM (top of the series) unless noted.
Summary of the method: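 Enzyme 20 nM + cpd, 15 min RT; add b-H3K9 pep 500 nM / SAM 20 uM; 2 h RT; anti-H3K9me1 Ab 0.5 ug/mL + SA donor / anti-rabbit acceptor beads 20 ug/mL each, 10 min; AlphaScreen read.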
Further: nearly all actives have a fitted effect of over 75% in size.
On the % scale 0 is the no-effect control and ±100 the full control effect; potency means the concentration at half of the fitted maximal effect; tags describe the fitted curve by direction and shape.

UniProt Q96KQ7, sequence (Q96KQ7 whole entry, looked up): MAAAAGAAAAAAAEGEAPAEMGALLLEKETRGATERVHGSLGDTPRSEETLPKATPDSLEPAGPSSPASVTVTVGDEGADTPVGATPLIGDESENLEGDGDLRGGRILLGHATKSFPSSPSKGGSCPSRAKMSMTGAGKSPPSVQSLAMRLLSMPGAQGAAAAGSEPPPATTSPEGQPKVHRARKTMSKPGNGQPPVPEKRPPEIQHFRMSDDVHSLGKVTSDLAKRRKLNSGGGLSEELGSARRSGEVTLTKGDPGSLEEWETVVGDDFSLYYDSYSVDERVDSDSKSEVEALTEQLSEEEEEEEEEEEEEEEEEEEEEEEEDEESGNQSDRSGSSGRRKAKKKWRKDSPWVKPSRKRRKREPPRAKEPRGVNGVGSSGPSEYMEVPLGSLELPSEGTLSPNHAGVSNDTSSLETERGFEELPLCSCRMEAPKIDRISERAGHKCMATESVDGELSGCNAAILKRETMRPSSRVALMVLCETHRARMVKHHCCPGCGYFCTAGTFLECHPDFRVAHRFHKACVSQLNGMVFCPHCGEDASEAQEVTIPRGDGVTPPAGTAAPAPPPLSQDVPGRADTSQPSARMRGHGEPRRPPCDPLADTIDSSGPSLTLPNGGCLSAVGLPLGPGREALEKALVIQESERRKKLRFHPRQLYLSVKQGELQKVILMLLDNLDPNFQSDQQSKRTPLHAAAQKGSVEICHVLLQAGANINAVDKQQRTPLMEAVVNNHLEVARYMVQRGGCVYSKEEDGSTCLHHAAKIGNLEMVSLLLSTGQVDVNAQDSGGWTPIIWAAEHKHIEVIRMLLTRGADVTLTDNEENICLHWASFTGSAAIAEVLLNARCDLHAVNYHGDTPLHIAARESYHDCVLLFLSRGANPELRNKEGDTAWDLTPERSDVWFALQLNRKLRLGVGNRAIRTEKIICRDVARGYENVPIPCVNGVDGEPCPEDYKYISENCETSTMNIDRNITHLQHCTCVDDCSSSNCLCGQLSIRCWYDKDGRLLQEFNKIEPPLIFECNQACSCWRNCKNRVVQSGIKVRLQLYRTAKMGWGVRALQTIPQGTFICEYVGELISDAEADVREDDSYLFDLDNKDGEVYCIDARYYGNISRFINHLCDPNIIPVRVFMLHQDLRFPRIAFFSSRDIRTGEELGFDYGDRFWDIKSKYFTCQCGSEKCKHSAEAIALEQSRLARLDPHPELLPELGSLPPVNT

Structure (SMILES)	Potency	activity, negative = inhibition
CCC(=O)NC(=S)Nc1ccc(S(=O)(=O)NC2CCCCC2)cc1	inconclusive: 63.1 µM [inhibitor, single point]	–
COc1ccc(N2CCN(C(=O)c3ccc(Nc4nc5ccccc5n5nnnc45)cc3)CC2)cc1	inconclusive: 3.16 µM [inhibitor, full curve]	–
CCCOc1ccc(/C(O)=C2/C(=O)C(=O)N(CCN(C)C)C2c2ccco2)cc1 (stereo not given)	–	inconclusive: -66% [inhibitor]
O=c1c2cc3c(cc2n(Cc2cccc(Cl)c2)c(=O)n1Cc1nc(-c2ccccc2)no1)OCO3	inconclusive: 3.16 µM [inhibitor, partial curve, poor fit]	–
O=c1cc(CN2CCN(c3cccc(Cl)c3)CC2)c2cc3c(cc2o1)CCCC3	inconclusive: 56.2 µM [inhibitor, partial curve, poor fit]	–
O=C(NCc1cccs1)C(=O)NCC(c1ccco1)N1CCN(c2ccccc2)CC1 (stereo not given)	inconclusive: 79.4 µM [inhibitor, partial curve]	–
O=C(CN1C(=O)COCC1=O)N1CCOCC1	inconclusive: 14.1 µM [inhibitor, single point]	–
Cc1cc(C)c2c(=O)n(CC(=O)NCCCN3CCOCC3)sc2n1	active: 1.26 µM	–
CCOC(=O)/C=C1\SCC(=O)N1CC(=O)NC(C)c1ccccc1 (stereo not given)	–	inactive: 20.2%
Cn1c(=O)[nH]c(=O)c2c1nc(N1CCCCCC1)n2CCCSc1nc2ccccc2o1	inconclusive: 3.16 µM [inhibitor, single point]	–
Cc1ccn2cc(-c3ccc(O)c(O)c3)nc2c1	active: 8.91 µM	–
Cc1ccc(N2C(=O)C3C(C2=O)C(C(=O)c2ccc(Cl)cc2)N2CCCC32)cc1 (stereo not given)	inconclusive: 2 µM [inhibitor, partial curve, poor fit]	–
CCC(Sc1ccc2nnc(-c3ccc(OC)c(OC)c3)n2n1)C(=O)O (stereo not given)	active: 7.94 µM	–
O=C(CSc1nc2ccccc2[nH]1)NC(=O)NCc1ccco1	inconclusive: 25.1 µM [inhibitor, single point]	–
Cc1cc(C)cc(N(C(=O)CNC(=O)c2ccco2)C(C(=O)NC2CCCCC2)c2ccncc2)c1 (stereo not given)	–	inactive: 13.5% [at 102 µM]
COC(=O)c1ccc(CSCC(=O)Nc2ccccc2)cc1	inconclusive: 79.4 µM [inhibitor, single point]	–
C=CCNC(=O)COC(=O)c1ccc(Sc2nncn2C)c([N+](=O)[O-])c1	–	inactive: -3.36% [at 102 µM]
O=C(/C=C/c1ccccc1[N+](=O)[O-])N1CCN(c2ccc(F)cc2)CC1	inconclusive: 44.7 µM [inhibitor, partial curve]	–
O=C(Nc1nnc(SCC(=O)N2CCCCC2)s1)C1CCCCC1	active: 3.98 µM	–
CC(=O)C1=C(O)C(=O)N(CO)C1c1ccccc1F (stereo not given)	active: 56.2 µM	–
CCOc1cc(CNCCc2ccc(S(N)(=O)=O)cc2)ccc1OCc1ccc(Cl)cc1	–	inactive: 10.3% [at 102 µM]
N#Cc1c(Cl)nsc1NN	active: 7.08 µM	–
O=C(CNC(=O)c1ccccc1Cl)NC1CCN(Cc2ccccc2)CC1	inconclusive: 89.1 µM [inhibitor, single point]	–
CN(C)c1cc(Cl)c2nonc2c1N	active: 39.8 µM	–

Structure (SMILES)	Potency	activity, negative = inhibition
CCCCNC(=O)C1c2ccccc2Oc2ccccc21	inconclusive: 7.94 µM [inhibitor, single point]	–
S=C(Nc1ccc(Nc2ccccc2)cc1)NN1CCOCC1	inconclusive: 44.7 µM [inhibitor, partial curve, poor fit]	–
O=C(O)C1CCCN1C1=NS(=O)(=O)c2ccccc21 (stereo not given)	inconclusive: 89.1 µM [inhibitor, single point]	–
CCN1CCC(=NNC(=O)c2ccco2)CC1	active: 44.7 µM	–
CCOC(=O)CC1C(=O)NCCN1S(=O)(=O)c1cccc(C(F)(F)F)c1 (stereo not given)	–	inactive: 69.4% [at 102 µM]
C=CCn1c(SCC(=O)/C(C#N)=C(\C)N)nc2sc(C)c(C)c2c1=O	–	inactive: 10.1%
O=C1CN=C(Nc2cccc(C(F)(F)F)c2)N1C1CCCC1	inconclusive: 3.16 µM [inhibitor, single point]	–
Cc1ccc(S(=O)(=O)N2CCC(=O)N(C(COCc3cccc(C)c3)Cc3ccccc3)CC2)cc1 (stereo not given)	inconclusive: 89.1 µM [inhibitor, single point]	–
O=C(COC(=O)/C=C/c1cccc(Br)c1)NCCC1=CCCCC1	inconclusive: 0.1 µM [inhibitor, full curve, poor fit]	–
O=C1CN=C(Nc2ccccc2Cl)N1Cc1ccc2c(c1)OCO2	inconclusive: 39.8 µM [inhibitor, single point]	–
COc1ccccc1C(CNC(=O)c1ccc(C)c(S(=O)(=O)N2CCCCC2)c1)N1CCCC1 (stereo not given)	–	inactive: 12.2% [at 0.501 µM]
CCOC(=O)C1(Cc2ccccc2C)CCCN(C(=O)c2cc(CC)nn2C)C1 (stereo not given)	–	inactive: -0.451% [at 102 µM]
Cc1ccc(N(Cc2cc(=O)[nH]c3ccccc23)C(=O)CCl)c(C)c1	active: 50.1 µM	–
Fc1ccccc1-c1n[nH]c(=S)n1/N=C/c1c[nH]c2ccccc12	active: 0.708 µM	–
O=C(Cn1c(N2CCN(C/C=C/c3ccccc3)CC2)nc2ccccc21)c1ccccc1	inconclusive: 79.4 µM [inhibitor, partial curve, poor fit]	–
Cc1ccccc1-n1c(SCC(=O)c2cc(C)n(C)c2C)nnc1-c1cccnc1	inconclusive: 50.1 µM [inhibitor, partial curve, poor fit]	–
c1ccc2sc(SSc3nc4ccccc4s3)nc2c1	inconclusive: 0.708 µM [inhibitor, full curve, poor fit]	–
COc1ccc(NC(=O)C2CCCN(S(=O)(=O)c3c(C)n[nH]c3C)C2)c(OC)c1 (stereo not given)	inconclusive: 100 µM [inhibitor, single point]	–
Cc1ccc(CNS(=O)(=O)c2cc(F)ccc2CN2C(=O)c3cccnc3C2=O)o1	inconclusive: 79.4 µM [inhibitor, single point]	–
COC(=O)c1ccc(NC(=O)C2CCN(C(=O)c3cc(OC)c(OC)c(OC)c3)CC2)cc1	active: 10 µM	–
CCOC(=O)N1CCN(c2ccc(Cl)cc2)CC1	–	inactive: 15.5%
CC(=O)c1ccc2c(ccc3ccccc32)c1	–	inactive: -4.88%
CCOc1ccc(NC(=S)NC(C)c2cccs2)cc1 (stereo not given)	–	inactive: 6.95%
O=C(Cc1ccc(Cl)cc1)Oc1cccc2cccnc12	inconclusive: 50.1 µM [inhibitor, partial curve, poor fit]	–

Structure (SMILES)	Potency	activity, negative = inhibition
COCCn1c(SCC(=O)Nc2ccc(S(N)(=O)=O)cc2)nc2ccccc21	inconclusive: 28.2 µM [inhibitor, single point]	–
CCCN1CCN(CCCNC(=O)c2cc3c(=O)[nH]c4ccc(C)cc4c3s2)CC1	inconclusive: 56.2 µM [inhibitor, partial curve]	–
Cc1ccc(C(=O)NCc2ccc3c(c2)CCN3C(=O)c2ccc(C)cc2)cc1	–	inactive: 1.33%
COc1cc(OC)cc(OCC(O)Cn2cnc(-c3ccccc3)c2)c1 (stereo not given)	inconclusive: 39.8 µM [inhibitor, single point]	–
CC(=O)Nc1c(O)nc(SC/C=C/CSc2nc(O)c(NC(C)=O)c(=O)[nH]2)[nH]c1=O	inconclusive: 14.1 µM [inhibitor, partial curve]	–
N#CCOC(=O)c1sccc1-n1cccc1	–	inactive: 5.31%
Cc1cccc(Nc2nn3c(=O)c4cc5c(cc4nc3s2)OCO5)c1	inconclusive: 7.94 µM [inhibitor, partial curve, poor fit]	–
COc1cc(OC)cc(-c2c(C#Cc3ccsc3)c3cc(-c4ccc(C(N)=O)cc4)ccc3n2C)c1	–	inactive: 9.14% [at 0.501 µM]
COCCCNC(=O)c1c(-c2ccccc2)c(-c2ccccc2)nn(C)c1=O	inconclusive: 11.2 µM [inhibitor, partial curve, poor fit]	–
O=C(NCc1cccnc1)c1cccn2c(=O)c3sccc3nc12	–	inactive: 2.69% [at 102 µM]
O=C(NNC(=S)Nc1ccc(Cl)cc1Cl)c1cccnc1	inconclusive: 12.6 µM [inhibitor, single point]	–
COc1nc(NCc2ccco2)nc(NC2CCCCC2)n1	inconclusive: 20 µM [inhibitor, single point]	–
C[C@@H](NC(=O)c1nc[nH]c1C(=O)NCC(=O)OCc1ccccc1)c1ccccc1	–	inactive: -10.4% [at 102 µM]
O=C(CC1=NC2(CCCC2)Cc2ccccc21)N1CCOCC1	inconclusive: 2.82 µM [inhibitor, partial curve, poor fit]	–
O=C(COC(=O)c1ccccc1OCC(=O)Nc1ccc(Br)cc1)Nc1ccccc1	inconclusive: 2.82 µM [inhibitor, single point]	–
COc1cc(N2C(=O)CSC23C(=O)N(Cc2cccc(F)c2)c2ccccc23)cc(OC)c1OC (stereo not given)	inconclusive: 6.31 µM [inhibitor, single point]	–
CCOC(=O)CSC1=C(C#N)C(c2ccc(F)cc2)C(C(C)=O)=C(C)N1 (stereo not given)	inconclusive: 39.8 µM [inhibitor, single point]	–
O=C(O)c1ccccc1C(=O)O	–	inactive: 1.02% [at 0.501 µM]
Cc1ccc(-n2ncc(C(=O)NCc3ccccc3)c2C2CCN(C(=O)OC(C)(C)C)CC2)cc1	inconclusive: 8.91 µM [inhibitor, partial curve, poor fit]	–
CC(=O)c1ccc(NC(=S)NNC(=O)c2ccncc2)cc1	inconclusive: 10 µM [inhibitor, partial curve, poor fit]	–
CC(C)CCn1c(CN2CCOCC2)nc2c1c(=O)n(C)c(=O)n2C	inconclusive: 56.2 µM [inhibitor, partial curve]	–
CCN(CC)S(=O)(=O)c1ccc(O)c(NS(=O)(=O)c2ccccc2F)c1	active: 1.41 µM	–
